This is an account of results in PMC12136788.

This is one part of the list.

To fix the notation:
B1: chr11:62363965:62363966:-_ENSG00000149480_ENST00000278823|perfect_dup|FALSE|FALSE (ssRNA)
RNA: GGGAGUUCUACAGUCCGACGAUCCAAUCUUUUCUGCUGAAUAUACCGGUCUGUGGUUUUCCACAUGUAAUAAAACUGGACUAUGCUUGCAAGUGACUUCCAGGGUAGAAAGUCCUGGCGGAUAUCAUUGAAAUCCUUCCCGUACAACAGAGGAUUGAGCAUCA
B2: chr7:23239867:23239868:+_ENSG00000136243_ENST00000258742|hu_mus|motif|central (ssRNA)
RNA: GGGAGUUCUACAGUCCGACGAUCUCCAAAUACUGAAGUGCUUCCGGAAGGAGGAGUGGCAAGUCCAGGGCUUGUUUUAAAACGGAAGUUCUGAACAGUACUGCUGCUGCUGUUAUUCACUGGGAAGCCUGGUGACCCAAACGACAACAGAGGAUUGAGCAUCA
B3: chr9:56909451:56909452:+_ENSMUSG00000032290_ENSMUST00000034832|mus_mus|FALSE|FALSE (ssRNA)
RNA: GGGAGUUCUACAGUCCGACGAUCCACAUACGUACACACACACACACACAGAAUGACAGAAAAGACUGGAAUACACGCCCUAUGUAUAAACGUGCUUGGCACUCGGGACAUUCUCUAGAAUAUGUAACUUGGUCAAGCUUUCUGCAACAGAGGAUUGAGCAUCA
B4: 32897347_32897467_5049_3pUTR_ENSMUSG00000013663_ENSMUST00000013807|mouse|control|control (ssRNA)
RNA: GGGAGUUCUACAGUCCGACGAUCUUCCGUCUGCAUGCACGACACAUUAACAGUAUUUAAAGGUAAACGAGGCACUUUGUGGCAACCACAGCCAUCGUUAUGAACAUAUUGCACAAAUUUUCUAAAACUAAACAUGUAACUUGUCAACAGAGGAUUGAGCAUCA
B5: chr11:100577090:100577091:-_ENSMUSG00000019173_ENSMUST00000107364|mus_mus|motif|central (ssRNA)
RNA: GGGAGUUCUACAGUCCGACGAUCAAAGGGUGACUGCUCCAAGCCCUGUCCCCACGGAUGAGGAGCACAGGAGCAUGGCGGCGGCCAGCAAAGGGCAAGUGGGGGAGCGGGAGAAAGGGACCUGGGAAGAGCAGAAGAUCAUAUCAACAGAGGAUUGAGCAUCA
B6: 123908528_123911063_1935_CDS_ENSG00000119397_ENST00000373850|human|control|control (ssRNA)
RNA: GGGAGUUCUACAGUCCGACGAUCACUGCCUUCCUUCCCAUCCUGCUGCCCAGGGCGUGGUUUUCUAACAGGAGUUGAGGCUGAGUACUUAAGGCCAACACCAGAGUCCUUGGUGGCCUGGGAACUAUGGCUGGAAACUUUUGACAACAGAGGAUUGAGCAUCA
B7: chr7:140404665:140404666:+_ENSG00000090266_ENST00000247866|hu_hu|hu_hu_hu_mus_False|58_78 (ssRNA)
RNA: GGGAGUUCUACAGUCCGACGAUCUGCUCCUACUCGUCCAGAGAGUUUACAGUGUCAGUCUUCAUCAUCAGGAGGGAUACCUAAUUCUUCAUCUGUCCACUGUGAAGGAUCUGGAUAUGAAAAGUGACCCAGCACAGCAUCCGACAACAGAGGAUUGAGCAUCA
B8: chr9:53391610:53391611:-_ENSMUSG00000032047_ENSMUST00000034547|mus_mus|FALSE|FALSE (ssRNA)
RNA: GGGAGUUCUACAGUCCGACGAUCCAGAGAAACAGCUCCUCCGUGGAUAUUUACUUUUUGGGGGUCAAUCUCCAGCAUUUUAAUGUUGGCUAGCACAACCACACUGAAUGCUUCAUUUACUUCCCACAUGGCAAUGUCUUCUUUCAACAGAGGAUUGAGCAUCA
B9: chr2:130910683:130910684:-_ENSG00000136699_ENST00000351288|hu_mus|FALSE|FALSE (ssRNA)
RNA: GGGAGUUCUACAGUCCGACGAUCGGAGCACAGAGCUGCCAUCUGGCCUGCAAAUCUACGGUUGAUGGCAGAGGACAGCCGGAAGAGUGCACGGACCAGACUGGUGAUUUCGUAGCUCCGGAUGGGCUGCAGCUCUAAGUCUCCCAACAGAGGAUUGAGCAUCA
B10: chr12:110729878:110729879:+_ENSG00000174437_ENST00000539276|hu_hu|FALSE|FALSE (ssRNA)
RNA: GGGAGUUCUACAGUCCGACGAUCUUCGAUGGCAUUUUCAGCAUUUCUUUCCUGCCAUACACCCACAAUUGCAUUGGCUACUAAUAUGAGUAAAAUUACAAAAGGUUCUACAAAGGCUGUAAUUGUUUCUUCACCUUCUUCAAACAACAGAGGAUUGAGCAUCA
B11: chr2:42509997:42509998:+_ENSG00000143924_ENST00000318522|hu_mus|hu_hu_hu_mus_True|88_108 (ssRNA)
RNA: GGGAGUUCUACAGUCCGACGAUCUCGCUGAGUUCUCUCCUCAUAAUUAAAUAGUACUACCACUGAGGCGAUAAAAUAAACUAUCUCCCCUGUGGGAAGCAGGUAUACAUUCGCUCUACAGUCCUUUCCUCGAUAACCGUAUACCAACAGAGGAUUGAGCAUCA
B12: chr11:58768410:58768411:+_ENSMUSG00000078851_ENSMUST00000108817|mus_hu|FALSE|FALSE (ssRNA)
RNA: GGGAGUUCUACAGUCCGACGAUCCUUCUUGUUGUCGCGCGCCGCGUUGCCGGCAAGCUCCAGGAUCUCGGCAGUCAAGUACUCGAGCACCGCGGCCAGAUAGACCGGGGCGCCGGCGCCCACGCGCUCCGAAUAGUUGCCCUUCAACAGAGGAUUGAGCAUCA
B13: chr7:56126341:56126342:+_ENSG00000146731_ENST00000540286|hu_mus|hu_hu_hu_mus_True|78_88 (ssRNA)
RNA: GGGAGUUCUACAGUCCGACGAUCCAUGUUUCUCCUCUUGGCUCUGCGCAGAGCAACUAUGCCUUCUUUCGCAAGGGCAUCUAAGGAAAAGGGGUCAAUCCCCUUUUGAUUAAUAACGACAAAUCCUUUAUCUGAGUCACCACACAACAGAGGAUUGAGCAUCA
B14: chr2:48026839:48026840:+_ENSG00000116062_ENST00000540021|hu_hu|hu_hu_hu_mus_False|88_108 (ssRNA)
RNA: GGGAGUUCUACAGUCCGACGAUCAUAGUGUGCCACUAGCGUCCUAAAUCUCGAACAGUGGCGGUCAUCCGAAAACUGGCCGAUGAAAAACUUGCCCAGUGAAGUGUCCACAAAGCAAACACCAUACACACGAGUGUGACCAGACAACAGAGGAUUGAGCAUCA
B15: chr2:35971668:35971669:-_ENSMUSG00000026889_ENSMUST00000028251|mus_mus|motif|central (ssRNA)
RNA: GGGAGUUCUACAGUCCGACGAUCAAGAAUUGGUACAAAUCAUAGACAUUGUUUAAAUACAAAUAAAUAGUUCUAGAUUCGGAAGAAACAACUCUAGAUAAUCCUAAGUAUUCUCUAGGUUCCUAUUAAAAAUAGAAGGCUAUUCAACAGAGGAUUGAGCAUCA
B16: chr12:48538843:48538844:+_ENSG00000152556_ENST00000359794|hu_hu|motif|central (ssRNA)
RNA: GGGAGUUCUACAGUCCGACGAUCCUCUUUGAUUUUCCCAGACAUCCAGUUCAUAGCCUUGGCGCCCAUCUUAGUGGCAAAAUUCCGGUCAAAUGGGGUUGGGCUCCCACCCUGCUGCAUGUGACCAAGCACAUUCUUCCUGCUCAACAGAGGAUUGAGCAUCA
B17: chrX:77158196:77158197:+_ENSG00000131174_ENST00000481445|hu_mus|motif|central (ssRNA)
RNA: GGGAGUUCUACAGUCCGACGAUCUCCAAUUUGUGUGGCUGUAUAUGUCCAUGUAGAAACACAGAAGAUGGCUCCACCUGCGGAUAUAGCAUUCCCAUAUUUGUCAUGGAAACUAGGUGCCCUCUUCUGGUGGCUCUGCCUUGCCAACAGAGGAUUGAGCAUCA
B18: chr1:109605286:109605287:-_ENSG00000197780_ENST00000461096|hu_mus|hu_hu_hu_mus_True|18_108 (ssRNA)
RNA: GGGAGUUCUACAGUCCGACGAUCAAGAACAAUAACAACAUUCAGUAACCUCUUUAAAUGCAAUUAUCCUUAUUAUAAGCUAAGCAGAAUAAUAAUUUAAUACCGUAAGUGAACUACCACAAAACCUUGAACCGCGAAAAUGGUCAACAGAGGAUUGAGCAUCA
B19: 61446480_61446600_460_CDS_ENSG00000126814_ENST00000261249|human|control|control (ssRNA)
RNA: GGGAGUUCUACAGUCCGACGAUCUGCUUCCAAAAGCAUCUGUGUCAGGGAUGUCCAAGCUACUGGAAUCAACGAUUUUGAUUCAGUUAUGCUAUGGCUUUCCAGUUUCAGAAAUCUUCCUGAGAAUCCAAAUGGCCUCCAUAACAACAGAGGAUUGAGCAUCA
B20: 121508962_121514323_1241_CDS_ENSG00000173226_ENST00000310864|human|control|control (ssRNA)
RNA: GGGAGUUCUACAGUCCGACGAUCAAGUCUCAUGGCUCUCUGUCUUUGAAGUUGCAAUUGUAAUUUGAGGUCCUCUUCUUCCUUCUGCCUAUUUAUCUCCAGCAACAUCUUUGAUCGUUUGGAUCUGAAACUCCUCUGCAAAGCCAACAGAGGAUUGAGCAUCA
B21: chr3:71021771:71021772:-_ENSG00000114861_ENST00000475937|hu_hu|FALSE|FALSE (ssRNA)
RNA: GGGAGUUCUACAGUCCGACGAUCCACUGUCCAUACUGCCCCUUUAACGUUUUCUACUCGCACAAAACACUUGUGAAGACUAAGAUUAUGACGCACUGCAUUCUUCCACGUGGCCGCGUUGCGUCGGAAGUAAGCAAACAUUCGCAACAGAGGAUUGAGCAUCA
B22: 4693242_4693362_2871_3pUTR_ENSMUSG00000066324_ENSMUST00000084949|mouse|control|control (ssRNA)
RNA: GGGAGUUCUACAGUCCGACGAUCCUAUUAAAUUAAUACCAAGUUUCCAAACACCAAAACUGAAUUUUCAUCACACAAAGGCCAAUUUAGUGCCGUUACAUACUGUAACAUACUGUUACAUACUGUUAAGUACGGGGAAAAGCACAACAGAGGAUUGAGCAUCA

This test has as its target T1, UNK ZnF1-3 (human, UniProt Q9C0B0 31-174).
T1 sequence: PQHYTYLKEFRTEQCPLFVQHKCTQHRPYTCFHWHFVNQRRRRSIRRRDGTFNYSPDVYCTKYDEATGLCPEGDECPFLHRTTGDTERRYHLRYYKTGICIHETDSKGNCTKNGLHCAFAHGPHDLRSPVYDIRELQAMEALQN
Description: nsRBNS (natural sequence RNA bind-n-seq); RBNS binding buffer (assumed for nsRBNS): 25 mM Tris pH 7.5, 150 mM KCl, 3 mM MgCl2, 0.01% Triton X-100, 500 ug/ml BSA, 20 U/ml SUPERase-In, 4 C; UNK is unkempt and MSI1 is Musashi-1; names of the RNAs are library labels; protein concentration not given here; high values mean tight binding.
The molecule B1 yielded a binding signal of 1.14 enrichment R.
Turning to B2, the binding signal amounted to 2.2 enrichment R.
In the case of B3, the binding signal was 1.23 enrichment R.
Turning to B4, the binding signal is 1.15 enrichment R.
To B5 belongs 1.27 enrichment R; to B6, 1.45 enrichment R.
To B7 belongs 1.08 enrichment R; to B8, 0.74 enrichment R; to B9, 0.73 enrichment R.
Molecule B10 yielded a binding signal of 1.04 enrichment R.
In turn, B11 came in with a binding signal of 1.38 enrichment R.
Under B12 stands 0.533 enrichment R; under B13, 0.647 enrichment R.
Consider B14, for which the binding signal stood at 1.09 enrichment R.
Under B15 stands 1.17 enrichment R; under B16, 0.739 enrichment R; under B17, 0.677 enrichment R.
To B18 belongs 0.954 enrichment R; to B19, 0.693 enrichment R.
Regarding B20, the binding signal turned out to be 0.704 enrichment R.
As for B21, the binding signal was determined as 0.965 enrichment R.
On to B22, for which the binding signal is 0.869 enrichment R.
